“And” between values parts separate entries of the source, which are not always exact repeats. Identical values can stand only once. The campaign covered roughly 110,000 compounds. About 230 (0.21%) showed an effect of 50% or more. Some of the results follow.
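Note: 30 min substrate incubation versus DMSO and 10 µM JCP410 controls.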

The target in this assay is DPAP1 (Plasmodium falciparum, UniProt Q8IIJ9). Kind of assay: primary screen, percent inhibition; read by cleavage of a fluorogenic dipeptide substrate; higher = more effect of the substance. On the set-up: species or system P. falciparum D10 trophozoite lysates; single well.
DPAP1, sequence (Q8IIJ9 whole entry, looked up): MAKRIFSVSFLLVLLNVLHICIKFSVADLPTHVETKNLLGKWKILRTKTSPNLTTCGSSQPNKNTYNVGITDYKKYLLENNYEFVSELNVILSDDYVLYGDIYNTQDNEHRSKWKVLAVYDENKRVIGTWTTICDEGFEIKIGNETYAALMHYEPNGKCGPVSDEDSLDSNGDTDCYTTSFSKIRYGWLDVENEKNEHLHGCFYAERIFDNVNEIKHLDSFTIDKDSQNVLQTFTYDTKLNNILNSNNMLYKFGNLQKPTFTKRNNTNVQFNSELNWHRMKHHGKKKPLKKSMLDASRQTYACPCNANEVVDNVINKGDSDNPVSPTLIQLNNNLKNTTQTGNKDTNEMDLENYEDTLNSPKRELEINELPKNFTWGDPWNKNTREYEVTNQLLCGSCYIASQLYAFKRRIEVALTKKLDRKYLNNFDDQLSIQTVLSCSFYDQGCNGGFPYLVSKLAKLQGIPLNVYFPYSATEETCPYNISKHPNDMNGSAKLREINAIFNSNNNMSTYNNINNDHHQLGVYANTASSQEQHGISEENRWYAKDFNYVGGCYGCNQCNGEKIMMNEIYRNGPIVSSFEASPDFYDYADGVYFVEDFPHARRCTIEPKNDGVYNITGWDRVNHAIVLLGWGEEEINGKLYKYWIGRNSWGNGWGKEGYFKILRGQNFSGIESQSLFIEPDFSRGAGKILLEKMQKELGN
`CC(C)CC(C(=O)NCC#N)c1nc(-c2ccc(-c3ccc(N4CCNCC4)cc3)cc2)cs1` (stereo not drawn): the “% Inhibition @ 10 uM” value is -4.94%.

For the compound `Cn1c(=O)n(C)c2cc(/C=C3/SC(=O)N(CC(=O)Nc4cccc5ccccc45)C3=O)ccc21`, the “% Inhibition @ 10 uM” value turned out to be 39%.

Take `CC(CN1CCN(Cc2ccccc2)CC1)c1ccccc1` (stereo not drawn): the “% Inhibition @ 10 uM” value is 3.68%.

Turning to `CCOC(=O)C1=C(C)N(c2ccc(OCC)cc2)C(=O)/C1=C\c1ccc(F)cc1`, the “% Inhibition @ 10 uM” value is listed as -3.5%.

`Cc1cc(C)c(C)c(S(=O)(=O)NCC(=O)NCc2ccco2)c1C`: the “% Inhibition @ 10 uM” value was determined as 0.709%.

`CCN(CC)C(=O)CSc1nnc(-c2ccccc2Cl)o1`: the “% Inhibition @ 10 uM” value is listed as 2.92%.

Regarding `O=C(NCCCn1ccnc1)c1cc2nc(-c3ccccc3)cc(-c3ccccc3)n2n1`, the “% Inhibition @ 10 uM” value is listed as 3.54%.

As for `Cc1cccc(Cl)c1OCCCc1c(C)n[nH]c1C`, the “% Inhibition @ 10 uM” value was -6.47%.

With `N#CC1=C(N)Oc2c(ccc3ccccc23)C1c1ccc(-c2ccccc2)cc1` (stereo not drawn), the “% Inhibition @ 10 uM” value amounted to 1.26%.

Regarding `COc1ccc(-c2nnc3sc(NC(=O)CCc4ccccc4)nn23)cc1OC`, the “% Inhibition @ 10 uM” value worked out at 1.96%.

For the compound `Cc1cc(-c2ccco2)c(C#N)c(S)n1`, the “% Inhibition @ 10 uM” value is on record as 51.7%.

With `Cn1c(=O)[nH]c(=O)c2c1nc(NCc1ccco1)n2Cc1ccc(F)cc1`, the “% Inhibition @ 10 uM” value is -10.8%.

On to `CC(C)OC(=S)/N=C(\NS(=O)(=O)c1ccccc1)c1ccccc1`, for which the “% Inhibition @ 10 uM” value is recorded as 35%.

Regarding `C=CCN(CC=C)c1nc(-c2ccccc2)nc2ccccc12`, the “% Inhibition @ 10 uM” value amounted to 3.8%.

For `Cc1ccc(C2C(=O)N(C3CCC(C)CC3)CC(=O)N2Cc2ccc(F)cc2)cc1` (stereo not drawn), the “% Inhibition @ 10 uM” value was -2.14%.

For `O=C1C2(c3ccccc3)CN3CC1(c1ccccc1)CN(C2)C3c1ccccc1O` (stereo not drawn), the “% Inhibition @ 10 uM” value was -3.24%.

For the compound `COc1ccc(Cl)c(Cn2c(NCC3CCCO3)nc3c2c(=O)n(C)c(=O)n3C)c1` (stereo not drawn), the “% Inhibition @ 10 uM” value is reported as 0.248%.

Take `CCCCN(C)c1c(N2CCN(C(=O)OCC)CC2)c(=O)c1=O`: the “% Inhibition @ 10 uM” value is listed as -1.44%.

With `Cc1cc2c(cc3c(=O)n(CC(=O)NC4CCCc5ccccc54)ncn32)s1` (stereo not drawn), the “% Inhibition @ 10 uM” value was found to be 1.68%.

Take `CC(C)CCN1C(=O)c2ccc(C(=O)Nc3cc(Cl)ccc3O)cc2C1=O`: the “% Inhibition @ 10 uM” value came out at 9.17%.

In the case of `Cc1noc(C)c1S(=O)(=O)NCC(=O)O`, the “% Inhibition @ 10 uM” value is listed as -5.76%.

Take `COc1cccc(C(=O)Nc2ccc(Br)c(C)n2)c1`: the “% Inhibition @ 10 uM” value came to 12.7%.

On to `COc1ccc2[nH]c(C(=O)O)c(CCNC(C)=O)c2c1`, for which the “% Inhibition @ 10 uM” value is on record as -7.02%.

In the case of `Cc1cccc(NC(=O)c2ccc(OC(C)C)cc2)c1`, the “% Inhibition @ 10 uM” value is recorded as -3.71%.

With `Cc1c(/C=C2\NC(=O)NC2=O)c2ccccc2n1C`, the “% Inhibition @ 10 uM” value amounted to 4.94%.

Turning to `CCCCC12CN3CC(C)(CN(C1)C3c1ccc(CC)cc1)C2=O` (stereo not drawn), the “% Inhibition @ 10 uM” value was -3.49%.

For `CCCc1nc2ccccc2c(=O)n1-c1ccc(Br)cc1`, the “% Inhibition @ 10 uM” value is -1.41%.

As to `CCn1ncc(C2=NOC(C(=O)Nc3cc(C)on3)C2)c1C` (stereo not drawn), the “% Inhibition @ 10 uM” value was -6.68%.

As to `Cc1ccc(C(=O)CCC(=O)Nc2cccc(C)c2)cc1`, the “% Inhibition @ 10 uM” value is -2.76%.

Take `O=c1/c(=C/c2ccccc2Cl)sc2nc(-c3cccs3)nn12`: the “% Inhibition @ 10 uM” value was determined as 3.54%.

With `COC1=NC(N)=C(S(=O)(=O)c2ccccc2)C(c2ccccc2)C1S(=O)(=O)c1ccccc1` (stereo not drawn), the “% Inhibition @ 10 uM” value is given as 7.55%.

For `CC(C)=CCCC1=CCC(COC(=O)Nc2ccccc2)C(C)C1` (stereo not drawn), the “% Inhibition @ 10 uM” value was 5.35%.

Turning to `CN(C)CCN(C)Cc1ccc(Cl)cc1`, the “% Inhibition @ 10 uM” value is -0.414%.

As to `C=CCN1C(=O)c2ccccc2C1(O)c1ccc(F)cc1` (stereo not drawn), the “% Inhibition @ 10 uM” value was determined as 5.35%.

As for `CN(C)CCCN(C(=O)c1ccco1)c1nc2ccc(Cl)cc2s1`, the “% Inhibition @ 10 uM” value was -1.87%.

Turning to `CNC(=O)c1sc2nc(C)cc(C)c2c1-n1cccc1`, the “% Inhibition @ 10 uM” value turned out to be 5.42%.

As for `N=c1c2c3c(sc2nc2n1CCCCC2)CCCC3`, the “% Inhibition @ 10 uM” value was 4.06%.

For the compound `COc1cc(OC)cc(C(=O)NCCOc2ccc(Cl)cc2)c1`, the “% Inhibition @ 10 uM” value is on record as -6.43%.

Take `Oc1nc2ccccc2c(O)c1Sc1ccccc1`: the “% Inhibition @ 10 uM” value is on record as -0.496%.

For `Cc1cccc(C(=O)Nc2c(C)nn(Cc3ccc(Cl)cc3)c2C)c1`, the “% Inhibition @ 10 uM” value is -4.41% and -2.74%.

Regarding `CC1(C)CC2=Nc3ccccc3NC(c3cc(Br)ccc3O)C2=C(O)C1` (stereo not drawn), the “% Inhibition @ 10 uM” value is on record as -2.07%.

`CCc1cccc(NC(=O)C2C3C=CC(O3)C2C(=O)O)c1` (stereo not drawn): the “% Inhibition @ 10 uM” value was 3.27%.

On to `Cc1ccccc1CNC(=O)c1ccc(N)cc1C(=O)O`, for which the “% Inhibition @ 10 uM” value is -5.32%.

For the compound `O=C(c1cccs1)N1CCN(c2ccc(Cl)c(Cl)c2)CC1`, the “% Inhibition @ 10 uM” value worked out at 1.93%.

Turning to `CCOC(=O)c1ccc(CSc2ccc(Cl)cc2)o1`, the “% Inhibition @ 10 uM” value is -0.812%.

Turning to `COc1cc(CN2CCN(C3CCCCCC3)CC2)cc(OC)c1OC`, the “% Inhibition @ 10 uM” value is given as 3.1%.

For `CCOC(=O)c1c(C)[nH]c(C)c1S(=O)(=O)N1CCC(C(=O)NC(C)(C)CC)CC1`, the “% Inhibition @ 10 uM” value is -3.05%.

In the case of `O=C(c1sc2ccccc2c1Cl)N1CCCCC1`, the “% Inhibition @ 10 uM” value is reported as 2.4%.

`CN1CCc2[nH]c3ccccc3c2C1`: the “% Inhibition @ 10 uM” value is reported as -1.3%.

With `CCc1sc(NC(=O)c2sc(C)nc2C)nc1-c1ccc(Br)cc1`, the “% Inhibition @ 10 uM” value was 4%.

Turning to `Cn1c(=O)c2c(nc(Cl)n2Cc2ccccc2Cl)n(C)c1=O`, the “% Inhibition @ 10 uM” value is on record as 11.5%.

Regarding `CCC(=O)NC(c1ccccc1)c1c(O)ccc2ccccc12` (stereo not drawn), the “% Inhibition @ 10 uM” value is -4.08%.

Regarding `Cc1nnc(N2CCC(C(=O)NCCN(C)C)CC2)c2nn(-c3ccc(Cl)cc3)c(C)c12`, the “% Inhibition @ 10 uM” value is on record as 1.23%.

Take `Cc1nc2c3cccnc3nn2c(C)c1CCC(=O)NCC(C)c1ccccc1` (stereo not drawn): the “% Inhibition @ 10 uM” value is on record as -0.0115%.

`Cc1c(CN2CCOCC2)c(O)n(CCO)c(=O)c1C#N`: the “% Inhibition @ 10 uM” value is on record as -2.56%.

With `CCN(CCC/N=c1/c(-c2ccccc2)c(O)c1=O)Cc1ccccc1`, the “% Inhibition @ 10 uM” value worked out at 1.14%.

For `CC1CN(c2ccc(Cl)nn2)CC(C)O1` (stereo not drawn), the “% Inhibition @ 10 uM” value worked out at 2.73%.

`COc1ccc(N2CCN(Cc3ccc(SC)cc3)CC2)cc1`: the “% Inhibition @ 10 uM” value is recorded as 3.84%.

Consider `Cn1ncc(Cl)c(Oc2ccc(C(C)(C)C)cc2)c1=O`, for which the “% Inhibition @ 10 uM” value turned out to be 5.56%.

Turning to `O=C(O)CSc1cccc(SCC(=O)O)c1`, the “% Inhibition @ 10 uM” value is listed as -1.74%.

Take `O=C(Nc1nc2ccccc2s1)c1ccc(S(=O)(=O)N2CCCCC2)cc1`: the “% Inhibition @ 10 uM” value is -1.46%.

As for `CC12C=CC3(CN(Cc4ccccc4)C(=O)C3C1C(=O)NCc1ccc(Cl)cc1)O2` (stereo not drawn), the “% Inhibition @ 10 uM” value was found to be 1.27%.

Take `COC(=O)c1cccc(-c2ccc(/C=C3\SC(=N)N(c4nccs4)C3=O)o2)c1`: the “% Inhibition @ 10 uM” value is -6.84%.

Consider `CCCCN(C)C(=O)Cn1cc2c(n1)CCC(C)C2` (stereo not drawn), for which the “% Inhibition @ 10 uM” value is -0.0741%.

For `COc1ccc(/C=N/N=C2\SCC(=O)N2Cc2ccccc2C)cc1OC`, the “% Inhibition @ 10 uM” value is reported as -3.27%.

Consider `Cc1ccc(S(=O)(=O)N(CC(=O)NCc2ccc(Cl)cc2)Cc2ccccc2)cc1`, for which the “% Inhibition @ 10 uM” value was -1.6%.

Values taken from article PMC6919601, “Identification of Plasmodium dipeptidyl aminopeptidase allosteric inhibitors by high throughput screening” (PLoS ONE, 2019).
